Data reported in the supplement of paper PMC6089552.
Screen size: about 3,200 compounds; about 300 (9.4%) showed activity. Only a part is listed here, and it is no random draw.

Tested on: A673/TR/shEF
Assay: cell viability (LOESS-normalised, relative to median of negative controls) (log2 ratio); higher = more viable cells (less compound effect), active = hit call of the paper (over 3 MAD below the median)
Details: treatment time: 72 h
Summary of the method: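 Viability of A673/TR/shEF Ewing sarcoma cells was determined by CellTiter-Glo luminescence. The cells, at 1,500 per well in 384-well plates, were grown with or without doxycycline from 24 h before compound addition to switch on EWS-FLI1 shRNA knockdown, then exposed for three days to library compounds at two or more concentrations or to DMSO controls. Signals were LOESS-corrected plate by plate, normalised to the negative-control median and log2-transformed.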

[1] = 0.25 µM, library screen: screen1, EWS-FLI1 expression: high (no doxycycline)
[2] = 0.25 µM, library screen: screen1, EWS-FLI1 expression: low (doxycycline-induced shRNA knockdown)
[3] = 2.5 µM, library screen: screen1, EWS-FLI1 expression: high (no doxycycline)
[4] = 2.5 µM, library screen: screen1, EWS-FLI1 expression: low (doxycycline-induced shRNA knockdown)
[5] = 0.103 µM, library screen: screen3, EWS-FLI1 expression: high (no doxycycline)
[6] = 0.103 µM, library screen: screen3, EWS-FLI1 expression: low (doxycycline-induced shRNA knockdown)
[7] = 0.25 µM, library screen: screen2, EWS-FLI1 expression: high (no doxycycline)
[8] = 0.25 µM, library screen: screen2, EWS-FLI1 expression: low (doxycycline-induced shRNA knockdown)
[9] = 0.308 µM, library screen: screen3, EWS-FLI1 expression: high (no doxycycline)
[10] = 0.308 µM, library screen: screen3, EWS-FLI1 expression: low (doxycycline-induced shRNA knockdown)
[11] = 0.926 µM, library screen: screen3, EWS-FLI1 expression: high (no doxycycline)
[12] = 0.926 µM, library screen: screen3, EWS-FLI1 expression: low (doxycycline-induced shRNA knockdown)
[13] = 2.5 µM, library screen: screen2, EWS-FLI1 expression: high (no doxycycline)
[14] = 2.5 µM, library screen: screen2, EWS-FLI1 expression: low (doxycycline-induced shRNA knockdown)
[15] = 2.8 µM, library screen: screen3, EWS-FLI1 expression: high (no doxycycline)
[16] = 2.8 µM, library screen: screen3, EWS-FLI1 expression: low (doxycycline-induced shRNA knockdown)
[17] = 8.3 µM, library screen: screen3, EWS-FLI1 expression: high (no doxycycline)
[18] = 8.3 µM, library screen: screen3, EWS-FLI1 expression: low (doxycycline-induced shRNA knockdown)
[19] = 25 µM, library screen: screen3, EWS-FLI1 expression: high (no doxycycline)
[20] = 25 µM, library screen: screen3, EWS-FLI1 expression: low (doxycycline-induced shRNA knockdown)

Measured: cell viability (log2)

CN(Cc1ccccc1)C(=O)C=Cc1ccc([N+](=O)[O-])cc1
inactive: [1] 0.0837 | [2] 0.078 | [3] 0.013 | [4] 0.137

NC[C@@H]1CC[C@@H](N)[C@@H](O[C@H]2[C@H](O)[C@@H](O[C@H]3O[C@H](CO)[C@@H](O)[C@H](N)[C@H]3O)[C@H](N)C[C@@H]2N)O1
inactive: [1] 0.0283 | [2] 0.046 | [3] 0.0406 | [4] 0.091

CC1=C(/C=C/C(C)=C/C=C/C(C)=C/C(=O)O)C(C)(C)CCC1
inactive: [5] 0.00907 | [6] 0.0022 | [1] -0.0184 | [2] 0.115 | [7] 0.173 | [8] 0.0676 | [9] 0.0569 | [10] 0.15 | [11] 0.0149 | [12] 0.135 | [3] -0.0163 | [4] 0.178 | [13] 0.0368 | [14] 0.183 | [15] -0.0527 | [16] 0.116 | [17] -0.0171 | [18] 0.084 | [19] -0.0128 | [20] 0.173

CC(C)=CCC/C(C)=C/C=C/C(C)=C/C=C/C(C)=C/C=C/C=C(C)/C=C/C=C(C)/C=C/C=C(\C)CCC=C(C)C
inactive: [1] 0.149 | [2] 0.105 | [3] 0.156 | [4] 0.123

CC(=O)O[C@@H]1CC2C(C)(C)[C@H](O)C=C[C@]2(C)C2CC[C@@]3(C)[C@H](c4ccoc4)OC(=O)C4OC43[C@@]21C (stereo not given in full)
inactive: [1] 0.000168 | [2] 0.0262 | [3] 0.0677 | [4] 0.0357

NC(=O)c1cc[n+](CC2=C(C(=O)[O-])N3C(=O)[C@@H](NC(=O)[C@@H](c4ccccc4)S(=O)(=O)O)[C@H]3SC2)cc1
inactive: [7] 0.178 | [8] 0.128 | [13] 0.0497 | [14] 0.0859

NCCCCN=C(N)N
inactive: [1] 0.0737 | [2] 0.063 | [7] 0.129 | [8] 0.0682 | [3] 0.15 | [4] 0.102 | [13] 0.175 | [14] 0.0262

CC(=O)Oc1ccccc1C(=O)O
inactive: [1] 0.0864 | [2] 0.103 | [7] -0.0224 | [8] 0.0553 | [3] 0.132 | [4] 0.124 | [13] 0.0414 | [14] 0.116

Cc1cc(=O)oc2cc(O)cc(O)c12
inactive: [1] 0.0986 | [2] 0.00891 | [3] 0.0982 | [4] 0.0904

O=C(O)[C@H]1NCCC[C@H]1C(=O)O
inactive: [7] 0.154 | [8] 0.0929 | [13] 0.154 | [14] 0.154

CC1=C(/C=C/C(C)=C/C=C/C(C)=C/C=C/C=C(C)/C=C/C=C(C)/C=C/C2=C(C)C(=O)[C@@H](O)CC2(C)C)C(C)(C)C[C@H](O)C1=O
inactive: [1] 0.129 | [2] 0.0523 | [7] -0.0189 | [8] 0.103 | [3] 0.147 | [4] 0.0156 | [13] 0.118 | [14] 0.123

COc1ccc2ccc(=O)oc2c1CC=C(C)C
inactive: [1] 0.0683 | [2] 0.00958 | [3] 0.0951 | [4] -0.0614

CC1(C)S[C@@H]2[C@H](NC(=O)[C@@H](NC(=O)N3CCNC3=O)c3ccccc3)C(=O)N2[C@H]1C(=O)O
inactive: [1] 0.122 | [2] 0.108 | [3] 0.0998 | [4] 0.128

COc1cc2c3cc1Oc1cc(ccc1O)C[C@@H]1c4c(cc(OC)c(O)c4Oc4ccc(cc4)C[C@@H]3N(C)CC2)CC[N+]1(C)C
inactive: [1] 0.0971 | [2] 0.0329 | [3] 0.0723 | [4] -0.0241

CC(=O)O[C@@H]1c2c(ccc3ccc(=O)oc23)OC(C)(C)[C@@H]1OC(=O)CC(C)C
inactive: [1] 0.0407 | [2] -0.0116 | [3] 0.121 | [4] 0.0173

CN1CCc2cc(Cl)c(O)cc2[C@@H](c2ccccc2)C1
inactive: [7] 0.102 | [8] 0.0596 | [13] 0.0549 | [14] 0.0194

Nc1ccc(N2C(=O)c3ccccc3C2=O)c(Cl)c1
inactive: [7] 0.208 | [8] 0.214 | [13] 0.0437 | [14] 0.148

CC1=C(C(=O)O)N2C(=O)[C@@H](NC(=O)[C@H](N)C3=CCC=CC3)[C@H]2SC1
inactive: [7] 0.206 | [8] 0.131 | [13] 0.143 | [14] 0.0524

N[C@@H](CCC(=O)N[C@@H](CS)C(=O)NCC(=O)O)C(=O)O
inactive: [1] 0.0494 | [2] 0.0411 | [3] 0.104 | [4] 0.0896

Cc1cc(Cl)ccc1OCC(O)CN1CCN(C)CC1 (stereo not given)
inactive: [1] 0.0377 | [2] 0.029 | [3] 0.0948 | [4] 0.184

NCCCCCCNS(=O)(=O)c1cccc2c(Cl)cccc12
inactive: [1] 0.066 | [2] 0.0556 | [7] 0.156 | [8] 0.0625 | [3] 0.0432 | [4] 0.0443 | [13] 0.141 | [14] 0.102

C[C@]12CC[C@@H]3c4ccc(O)cc4CC[C@H]3[C@@H]1CC[C@@H]2O
inactive: [5] 0.029 | [6] -0.00908 | [1] 0.122 | [2] 0.00576 | [7] 0.147 | [8] 0.0497 | [9] 0.101 | [10] 0.0915 | [11] 0.111 | [12] 0.0539 | [3] 0.0979 | [4] 0.0174 | [13] 0.0738 | [14] 0.0113 | [15] 0.127 | [16] 0.0786 | [17] 0.135 | [18] 0.0545 | [19] 0.166 | [20] 0.0719

CCCN(CCC)S(=O)(=O)c1ccc(C(=O)O)cc1
inactive: [1] 0.0518 | [2] 0.0728 | [3] 0.139 | [4] 0.185
